Article PMC6919601, “Identification of Plasmodium dipeptidyl aminopeptidase allosteric inhibitors by high throughput screening” (PLoS ONE, 2019)
About 230 (0.21%) of roughly 110,000 compounds showed an effect of 50% or more. Some of the results follow.

target: DPAP1 (Plasmodium falciparum, UniProt Q8IIJ9); test: primary screen, percent inhibition; read by cleavage of a fluorogenic dipeptide substrate; higher = more effect of the substance; design: species or system P. falciparum D10 trophozoite lysates; single well
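Further: 30 min substrate incubation versus DMSO and 10 µM JCP410 controls.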

DPAP1, sequence (Q8IIJ9 whole entry, looked up): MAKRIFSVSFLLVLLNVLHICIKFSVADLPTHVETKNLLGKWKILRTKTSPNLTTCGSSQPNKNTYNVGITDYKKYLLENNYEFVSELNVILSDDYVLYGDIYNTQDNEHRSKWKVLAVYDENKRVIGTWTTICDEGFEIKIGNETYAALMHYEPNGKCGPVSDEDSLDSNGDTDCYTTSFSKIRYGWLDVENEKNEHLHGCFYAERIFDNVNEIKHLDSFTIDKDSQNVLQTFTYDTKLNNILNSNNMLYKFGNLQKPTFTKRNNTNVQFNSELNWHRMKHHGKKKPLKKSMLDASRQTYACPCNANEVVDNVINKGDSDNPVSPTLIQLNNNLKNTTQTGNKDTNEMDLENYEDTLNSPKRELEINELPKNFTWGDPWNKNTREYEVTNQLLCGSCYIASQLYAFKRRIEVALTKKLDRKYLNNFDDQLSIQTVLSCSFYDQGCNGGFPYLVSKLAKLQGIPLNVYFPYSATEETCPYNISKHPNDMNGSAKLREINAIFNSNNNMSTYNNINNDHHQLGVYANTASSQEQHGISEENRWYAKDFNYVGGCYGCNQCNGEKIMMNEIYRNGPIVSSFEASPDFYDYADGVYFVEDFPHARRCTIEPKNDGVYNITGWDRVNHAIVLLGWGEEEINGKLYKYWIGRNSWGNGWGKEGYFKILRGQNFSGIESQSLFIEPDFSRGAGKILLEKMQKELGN

SMILES	% Inhibition @ 10 uM
CCOc1ccc(C(=O)N2CCN(c3ccc(N4CCOCC4)nn3)CC2)cc1OCC	-7.13%
COc1ccc(C(=O)Nc2ccccc2C(=O)N2CCC(C)CC2)cc1	-4.14%
COc1ccc(C(=O)N/C(=C/c2ccc(Br)cc2)C(=O)NC(C)(C)C)cc1	-0.988%
Cc1noc(C)c1CCN1CNc2c(c(=O)n(C)c(=O)n2C)C1	-4.98%
O=C(CS(=O)(=O)c1ccc2ccccc2c1)N1CCCCCC1	-9.39%
COc1cccc(NC(=O)COc2ccc3ccccc3c2Br)c1	-2.56%
NC(=O)COc1cccc2cccnc12	3.74%
O=C(Nc1ccc(C(F)(F)F)cc1)C1CCN(S(=O)(=O)c2ccc(Cl)cc2)CC1	9.97%
CC(C)(C)c1ccccc1OCCCN1CCCCC1	3%
Cc1ccc(C(C)C)c(OCC(=O)c2c(O)oc3ccccc3c2=O)c1	0.0539%
c1csc(CCN2CCC3(CC2)OCCO3)c1	-2.03%
CCOc1ccc(C(=O)NC2CCCCCC2)cc1	4.38%
Fc1ccc(CC2NCCn3cccc32)cc1 (stereo not shown)	3.18%
COc1ccc(-c2c(C)nn3c(N4CCC(C(=O)Nc5cc(C)on5)CC4)cc(C)nc23)cc1OC	-0.138%
CC(C)c1ccccc1NC(=O)CN(c1cccc(F)c1)S(C)(=O)=O	-1.6%
N=C(NOS(=O)(=O)c1ccccc1)c1cccnc1	3.8%
CCCn1c(=O)c2sccc2n2c(CCCC(=O)NCC(C)c3ccccc3)nnc12 (stereo not shown)	-3.58%
Cc1c(NC(=O)c2ccc(Cl)cc2)c(=O)n(-c2ccccc2)n1C	1.41%
COc1ccc(C(=O)Nc2sc(C(=O)N(C)C)c(C)c2C#N)c(OC)c1	4.33%
O=C(OCc1ccccc1Cl)c1ccc(-n2cnnc2)cc1	-4.04%
Cc1nn(C)c(-c2nnc(S)n2Cc2ccccc2)c1Cl	3.94%
COc1cccc(-n2c(C)c(C(C)=O)c(C(C)=O)c2C)c1	1%
O=S(=O)(c1ccc(Cl)c2ccccc12)N1CCCCCC1	5.41%
CC1=CC2=NC(=O)/C(=C\c3cn(CCOc4ccc(C)cc4)c4ccccc34)C(=N)N2O1	-5.1%
NC(=O)C1CCN(C(=O)c2[nH]c3ccccc3c2Sc2ccc(Cl)cc2)CC1	-5.97%
O=C(Nc1ccc(F)cc1)c1ccc2c(c1)C(=O)N(Cc1cccnc1)C2=O	8.03%

SMILES	% Inhibition @ 10 uM
CCCC(=O)NC(c1ccc(Cl)cc1Cl)c1ccc2cccnc2c1O (stereo not shown)	0.884%
COc1ccc(NC(=O)C2=C(C)NC(=O)NC2c2ccc(Cl)cc2Cl)cc1 (stereo not shown)	-3.5%
COc1cc(CN2CCN(Cc3ccc(SC)cc3)CC2)cc2c1OCO2	4.07%
CCOC(=O)c1oc2cc(Cl)c(O)c(CN(C)C)c2c1C	-2.2%
O=c1/c(=C/c2ccccn2)sc2nc3ccccc3n12	-2.87%
COCCNC(=O)c1cc(-c2ccc3c(c2)OCO3)on1	0.628%
COc1ccc2[nH]c3c(=O)n(CCCCC(=O)NCCCOC(C)C)c(=S)[nH]c3c2c1	4.14%
CCOc1ccc2oc(=O)cc(CN3CCCCC3)c2c1	-3.49%
COCc1cc(O)n2nc(C)c(-c3ccccc3)c2n1	-1.28%
COC(=O)c1ccc(Cn2nnc3sc(-c4ccccc4)cc3c2=O)cc1	2.41%
Cc1cccc(OCC(=O)Nc2ccc(Oc3ccccc3)cc2)c1	0.755%
Nc1ncnc2[nH]c(N3CCCCC3)nc12	0.177%
COc1ccc2c(CNCCc3ccccc3OC)c(C(=O)O)n(Cc3cccc(F)c3)c2c1	3.3%
CN1CCN(C(=O)c2cc(=O)c3cc(Cl)ccc3o2)CC1	0.248%
S=C(CN1CCCC1=S)N1CCOCC1	2.91%
O=C(O)c1nc2nc(-c3cccs3)cc(C(F)(F)F)n2n1	0.345%
COc1ccc(C=O)c(O)c1	-1.08%
Cc1cc(Oc2nc3ccccn3c(=O)c2/C=C(\C#N)C(=O)NCc2ccccc2)ccc1Cl	0.189%
c1ccc(-c2ccc(CN3CCN(Cc4ccc5c(c4)OCO5)CC3)cc2)cc1	-1.07%
CCO/C(O)=C1\C(C)=NC2=C(C(=O)CCC2)C1c1cccc(Cl)c1 (stereo not shown)	-0.233%
C=CCNC(=O)C1CC(c2ccc(F)cc2)=NO1 (stereo not shown)	-0.644%
CCCCNC(=O)c1ccc(C2SCC(=O)N2CCc2ccccc2)cc1 (stereo not shown)	-4.15%
O=C(c1ccco1)N1CCN(Cc2ccco2)CC1	2.16%
N#Cc1cccc(NC(=O)COc2ccc(Br)cc2Cl)c1	-5.03%
O=S(=O)(c1ccc2c(c1)OCCO2)N1CCC(Oc2ccc(-n3cnnn3)cc2)CC1	3.88%
COc1ccc(CNC(=O)C2CCN(C3=NS(=O)(=O)C(c4ccc(C)c(C)c4)=C3C)CC2)cc1	1.72%

SMILES	% Inhibition @ 10 uM
COc1ccc(-c2c(Cc3ccccc3)nn3c(O)cc(Cc4ccccc4)nc23)cc1	-0.158%
NC(=O)C1CCN(C(=O)C2CCN(c3ncnc4c3nc3n4CCCCC3)CC2)CC1	3.27%
COc1ccc(S(=O)(=O)Nc2cnn(Cc3ccc(Cl)c(Cl)c3)c2)cc1	-5.88%
NC(=O)c1c(NC(=O)C2CCCO2)sc2c1CCCCCC2 (stereo not shown)	35.5%
O=C(NC12CC3CC(CC(C3)C1)C2)N1CCC(Cc2ccccc2)CC1	3.53%
Clc1cccc(OCCN2CCCC2)c1Cl	3.76%
Cc1nc(O)c2c3c(sc2n1)CCC3	0.00784%
O=C(O)c1ccc(OCCNS(=O)(=O)c2cc(Cl)ccc2OCC(=O)N2CCOCC2)cc1	-0.631%
CCC(C(=O)Nc1cccc(C(C)=O)c1)c1ccccc1 (stereo not shown)	-0.641%
Cc1ccc(OCC(=O)Nc2ccc(S(=O)(=O)N3CCCC3)cc2)cc1	-0.992%
COCCCNC(=O)c1ccc2nc(N3CCCCC3)sc2c1	-4.15%
Cc1cc2nc(C[n+]3cccc(C(N)=O)c3)[nH]c2cc1C	0.722%
Cc1ccc(-c2noc(CCCC(=O)N3CCCCC3)n2)cc1	-1.15%
COc1ccc(C(=O)O)cc1S(=O)(=O)N1CCC(C)CC1	3.04%
CCc1ccccc1NC(=O)CCCOc1ccccc1OC	1.39%
CC(NC(=O)C(Cc1ccccc1)NS(=O)(=O)c1cccc2nsnc12)c1ccccc1 (stereo not shown)	2%
CC1CN(C(=O)c2ccc(CNS(=O)(=O)c3cccc(Cl)c3)cc2)CC(C)O1 (stereo not shown)	-7.28%
Cc1c(CNC(=O)Cn2nc(C(F)(F)F)cc2C2CC2)cnn1C	1.34%
COc1cccc(C(=O)Nc2cccc(-c3cn4ccsc4n3)c2)c1	-2.77%
Cc1cccc(CCNC(=O)c2nc(-c3ccncc3)no2)c1	-3.8%
CCCC(C)c1c(O)nc(Nc2nc(C)c3cc(OC)ccc3n2)nc1O (stereo not shown)	-0.357%
Cc1ccc(S(=O)(=O)NCc2ccc3[nH]c4c(c3c2)CCCC4)cc1C	7.02%
O=C(O)CSc1ccc(Cc2ccc(SCC(=O)O)cc2)cc1	3.25%
O=C(O)C1(S(=O)(=O)c2ccccc2)CC1	-8.51%
COc1ccc(C2C(C(=O)c3ccccc3)=C(O)C(=O)N2CC2CCCO2)cc1OC (stereo not shown)	5.03%
CC(C)(C)c1ccc2c(c1)C(=O)N(c1cccc(C(=O)O)c1)C2=O	-6.24%

SMILES	% Inhibition @ 10 uM
CCOC(=O)c1sc2c(Cl)c(OC)ccc2c1Cl	1.54%
O=C(Cn1ncc2c3ccccc3n(Cc3ccccc3)c2c1=O)N1CCC(N2CCCCC2)CC1	9.33%
CCN1C(=O)C(CC(=O)Nc2ccc(F)cc2)S/C1=N/c1ccc(Cl)cc1 (stereo not shown)	4.98%
COc1ccc(CC(=O)Nc2cccc(Cl)c2C)cc1	-2.14%
O=S(=O)(/N=C(/NC(=S)Nc1ccccc1)c1ccccc1)c1ccccc1	0.00784%
COc1ccc(-n2nc(C)cc2O)cc1	3.72%
COc1cc(CN2CCC(Cc3ccccc3)CC2)cc(OC)c1O	-3.72%
O=C(Nc1ccccc1C(=O)O)c1ccccc1F	1.35%
S=c1nc(-c2ccccc2)n(C2CCCCC2)c2c1CCCC2	-4.8%
CCCOc1ccc(CNc2ccc(F)cc2)cc1OC	-5.35%
O=C(O)c1cnn(-c2ccccc2)c1-n1cccc1CNCCc1ccc(Cl)cc1	4.79%
CCOc1ccc2nc(N3CCCC(C(=O)NCCc4ccc(S(N)(=O)=O)cc4)C3)sc2c1 (stereo not shown)	6.46%
Cc1c(Cl)cccc1NC(=O)C1CCCCC1	-1.48%
CCOc1cc(/C=C2/SC(=O)NC2=O)ccc1OC(C)CC (stereo not shown)	5.39%
Cc1ccc2cc3cc(C(=O)NCCCN4CC(C)CC(C)C4)sc3nc2c1 (stereo not shown)	2.55%
Cc1nn(CC(=O)NCc2ccccn2)c(=O)c2c1sc1ccccc12	4.4%
C=CCOC(=O)C1=C(C)N=C2CCCC(O)=C2C1c1ccc(C(=O)OC)cc1 (stereo not shown)	2.45%
CSCCCN1CCC(O)(c2ccc(Br)cc2)CC1	-2.95%
Cc1nn(S(=O)(=O)c2ccccc2)c(C)c1Sc1ccccc1	-10.2%
CCn1nc(C)c(C(=O)Nc2cc3oc4ccccc4c3cc2OC)c1C	1.92%
Cc1ccc(-c2nc(CSCC(=O)NCC3CCCO3)c(C)o2)cc1 (stereo not shown)	-1.05%
Cc1cc(F)c(F)cc1C(=O)Nc1cccc(F)c1	-6.08%
COc1ccc(/C=C/C(=O)Nc2noc3ccccc23)cc1OC	-4.64%
CC(C)n1cc(NC(=O)c2cc(-c3ccccc3)on2)cn1	3.54%
Nc1no[n+]([O-])c1C(=O)NCc1cccnc1	-0.403%
